This is an account of results in PMC12136788.

The other results are listed elsewhere or left out.

The labels stand for the following.
B1: chr15:90501451:90501552:+|3pUTR|ENSG00000140575|msi1_unk|total|mutant (ssRNA)
RNA: GGGAGUUCUACAGUCCGACGAUCCUGAGCCUCUAUUUUCUUUCUUUGAUGUUUUGAUUCAGUAUUCUUUUAUCAUAAAUUUUCCGCAUUUAAAAAUUCACUGAUGUACAUUAAGCCAAUAAACUGCUUUAAUGAAUAACAAACCAACAGAGGAUUGAGCAUCA
B2: chr1:203741760:203741861:+|3pUTR|ENSG00000058668|msi1|FALSE|unique (ssRNA)
RNA: GGGAGUUCUACAGUCCGACGAUCAUUUUGGUUUUGUAAAACGUACAUGCUUCAAUAAUUCUUUUUUGUGUCUUAAAUACUCAUAGGGGAAAAAAACAGCUCACCCAAGGUGUUAGGUUUCACAUAUAUAUUCAUCAACUAUUUCAACAGAGGAUUGAGCAUCA
B3: chr19:34469546:34469571:+|3pUTR|ENSG00000126261|msi1_unk|FALSE|overlapping (ssRNA)
RNA: GGGAGUUCUACAGUCCGACGAUCGUUGCCUUUUUAAUGUAAAUACCCGUAGGUAUCAUUAAUAGUUUCAAAAUAUUGUGGUUUAGUAAAGUUGAUACCUGGUUAUAAAUAUUAUGCCUUUAUUUUUGGCUAGAAGAAGAAUUACAACAGAGGAUUGAGCAUCA
B4: chr9:37357341:37357442:+|3pUTR|ENSG00000147905|unk|total|mutant (ssRNA)
RNA: GGGAGUUCUACAGUCCGACGAUCAUUAUCUAUGAUUAAAUAAAGUGAGUUUUUGGUUUUGUUUUUUUAAUUUCAGCCAUUCCCCGAGUUACUGAAUAUCCAUGGAGAUCUCAAUUCUCUGUGUCCAACAGGAUAUCCGGUAAGCAACAGAGGAUUGAGCAUCA
B5: chr7:93208579:93208876:-|CDS|ENSG00000188175|control|control|control (ssRNA)
RNA: GGGAGUUCUACAGUCCGACGAUCUGACAAUACUACAUAUAUCAUUAAGCAUGGGCCUCGCUUAGAAGUUGCAUCUGAGAAAGUAGCCCAGAAGACAAUGGACUAUGUGUGCUGUGCUUACAACAACAUAACCGGCAGGCAAGACAACAGAGGAUUGAGCAUCA
B6: chr18:47840682:47840783:-|3pUTR|ENSG00000175387|unk|FALSE|unique (ssRNA)
RNA: GGGAGUUCUACAGUCCGACGAUCAUACCGUUUUUCCAAAGGUAUUUUACAAUAUUUCAACAGCAGACCUUCUGCUCUUCGAGUAGUUUGAUUUGGUUUAGUAACCAGAUUGCAUUAUGAAAUGGGCCUUUUGUAAAUGUAAUUCAACAGAGGAUUGAGCAUCA
B7: chr7:138594284:138594621:-|three_prime_utr|ENSG00000157703|control|control|control (ssRNA)
RNA: GGGAGUUCUACAGUCCGACGAUCUCAGAACUGCGGUGCAUUUUUUUAAAACUUGGUUUUACUUCUGUAUGCUACUCGGUAAUUAGUAAAGUGAUUUUUUUUUUAAAGGCAUAUAUGGGAAUGGGGUAGGUAACUGUAUAUUGACAACAGAGGAUUGAGCAUCA
B8: chr10:106575406:106575507:-|3pUTR|ENSG00000108018|unk|total|mutant (ssRNA)
RNA: GGGAGUUCUACAGUCCGACGAUCUUAUGGACUGGGCAAAGCCCACUAUAAACUACCGGAGAAAGAAGUUCUGAUAAACCUCUCCGUAUGCUCAGCCUCCUUCUUUGCUAUGUCCCUAAGCCAACAGGGUAUAACACAGGCCCUCAACAGAGGAUUGAGCAUCA
B9: chr15:85746268:85746369:+|3pUTR|ENSG00000170776|msi1|total|mutant (ssRNA)
RNA: GGGAGUUCUACAGUCCGACGAUCUGUUUUAUUUAUUGUAUUUGUGUGUUUGUGUUUGUUUUUUUUUAAGGGUGAGCCAGGUCCCGCCCAACAGUCUAAACUAUCCAGUCAAUACCGAGUGAAGUGGCAGCCAGCACUGUUCACCAACAGAGGAUUGAGCAUCA
B10: chr5:72207927:72208036:+|3pUTR|ENSG00000131711|msi1_unk|FALSE|overlapping (ssRNA)
RNA: GGGAGUUCUACAGUCCGACGAUCUUUUUUUUUUUUUUUUUUUGCUAUGGGAUUUAAUGGGAAAAAUAUGUAAAAACUGUCACUAGUCAGCUGGCUCUUUUUCCUAUGAAAUCUAUCAGUACCUUUCUCCAUCCGUUGUUCUCACAACAGAGGAUUGAGCAUCA
B11: chr5:141515350:141515460:-|3pUTR|ENSG00000131504|msi1_unk|FALSE|overlapping (ssRNA)
RNA: GGGAGUUCUACAGUCCGACGAUCCUCAGCUUUCCAUCCCCAGCUAGGAAGAAAGAAUGGCACUCUUGGGCUUGGCCCAGAAUUAGAGUUAUUAGAGCAAGAGAGAGCUUAGGAAGCAUGAGGGCAACUAUAGUGAGGCCUUAUCAACAGAGGAUUGAGCAUCA
B12: chr8:58583617:58583718:-|3pUTR|ENSG00000035681|unk|total|mutant (ssRNA)
RNA: GGGAGUUCUACAGUCCGACGAUCGUUUUGUCUUCCUAAUCUAUCACAAUUGCCACCCAUCGGGUUUUGGGUGUGUGUUUUCACCGCGUGGUUACUUUCUAUAAUGCUGUACCCAGAUUCUAAGAACCUGGAGAAGGAUCCGCACAACAGAGGAUUGAGCAUCA
B13: ENSG00000089050:stop:overlap|stop_codon|ENSG00000089050|stop_codon|NA|stop_codon (ssRNA)
RNA: GGGAGUUCUACAGUCCGACGAUCAGAACACAGAGUUUCAUGAACUGAUUACUGUUGUAAAGUCUUUGCUGAAAGUACCAGCAUAGACUGUAUGAUUUCUGCUAUUUUGCAUCCCAAUAUAGGAGUAGAAUAAUAUCUACUAUCCAACAGAGGAUUGAGCAUCA
B14: chr19:45712844:45712945:-|CDS|ENSG00000177051|unk|FALSE|bound_elsewhere (ssRNA)
RNA: GGGAGUUCUACAGUCCGACGAUCGGAACAGCGGGCAGCCCUGGCCCUGCAGAGCUACCCACGACCGACCACCCCAGCGCCUGUAGUCUUUGUGUCCGCCGAGCAAGGUGGACCGGCCAAGGGGGUGGGAUCUGAACGGCGGUCCAACAGAGGAUUGAGCAUCA
B15: chr12:104348774:104348848:+|3pUTR|ENSG00000198431|msi1_unk|total|mutant (ssRNA)
RNA: GGGAGUUCUACAGUCCGACGAUCCGUUGUCAAGUUUUCCCGGGUUGAAUUUUUUUCUUUUUUCUCCAUGGUGUUAAUGAUAUCCGAGAUGAAAAACGUCCGCAGUUGAUUUUUGUCCAAAAGCAAGUCAUGGCCCGAGUAUCCCAACAGAGGAUUGAGCAUCA
B16: chr1:186359875:186359976:-|CDS|ENSG00000047410|msi1_unk|FALSE|overlapping (ssRNA)
RNA: GGGAGUUCUACAGUCCGACGAUCGGAAACUCAGGAUCAGUUGCUUUUGGAGAAACUAGAGAACAAAAGAAUUAAUAAGUACCUAGAUGAAAUAGUGAAAGAAGUGGAAGCCAAAGCACCAAUUUUGAAACGCCAGCGUGAGGACAACAGAGGAUUGAGCAUCA
B17: chrX:30828625:30828726:-|3pUTR|ENSG00000157625|msi1|FALSE|bound_elsewhere (ssRNA)
RNA: GGGAGUUCUACAGUCCGACGAUCUUCUUGUUUCUUGUAAGAGGUUUCUUUAAAAUGACUAGUUUGAUGUAUCUGGUAACAUAUAGGCCUGACUAUACAUUUUACAUUAUUUCGCUAUUUUGUAAACUGGGAUUUUAGAAAGCACAACAGAGGAUUGAGCAUCA
B18: chr6:157944353:157944454:+|3pUTR|ENSG00000130340|unk|FALSE|unique (ssRNA)
RNA: GGGAGUUCUACAGUCCGACGAUCAGUAAUUCUCCCCACUUGAUUUUUCUUCUAUAAAAUCCCAUAGAACAAUGUUUAUGCUAUAGCCAUUUAAUAUAUGUACAAAUUGUAAAGAAUAUGUAUAAAUGUUUUACACGAAUGUAACAACAGAGGAUUGAGCAUCA
B19: chr1:226632358:226632459:-|3pUTR|ENSG00000143772|msi1|total|mutant (ssRNA)
RNA: GGGAGUUCUACAGUCCGACGAUCUCAAGCCAUUUUGCCACUCGCUUCCCUGCCAUCUGGCCCUUCCCUUUGUCUCAGUGGGACCGAUGGAUUGUGAAAUGGAAUCUCCCAGAACCCCUGCCCUGGCAGCCUGGAAGACCGUGCCAACAGAGGAUUGAGCAUCA
B20: ENSG00000070961:be:win_1751|CDS|ENSG00000070961|bound_else_gene|NA|bound_elsewhere_windowed (ssRNA)
RNA: GGGAGUUCUACAGUCCGACGAUCCCAUGAGUACUGUCCUGAAAAAUUCAGAUGGAAGUUAUCGAAUAUUCAGCAAGGGUGCAUCUGAGAUAAUUCUGAAAAAGUGUUUCAAAAUCUUGAGUGCUAAUGGUGAGGCAAAAGUAUCAACAGAGGAUUGAGCAUCA
B21: chrX:72139229:72139330:+|CDS|ENSG00000204131|unk|total|mutant (ssRNA)
RNA: GGGAGUUCUACAGUCCGACGAUCUCCCUCCGUGCCCAGCAAGAGGCCCAGCACAGAAGGCAGAGGUCCAAGAGUAUCUCACUCCGGAAGGCCAAAAAGAAGCCUUCCCCACCCACACGCAGUGUCUCACUGGUCAAAGAUGAGCAACAGAGGAUUGAGCAUCA
B22: chr17:41586309:41586834:-|CDS|ENSG00000186847|control|control|control (ssRNA)
RNA: GGGAGUUCUACAGUCCGACGAUCGCCUGCGGGCUGGGGGGCGGCUAUGGCGGUGGCUUCAGCAGCAGCAGCAGCAGCUUUGGUAGUGGCUUUGGGGGAGGAUAUGGUGGUGGCCUUGGUGCUGGCUUGGGUGGUGGCUUUGGUCAACAGAGGAUUGAGCAUCA

This test has as its target T1, UNK ZnF1-6 (called full-length) (human, UniProt Q9C0B0 30-357).
T1 sequence: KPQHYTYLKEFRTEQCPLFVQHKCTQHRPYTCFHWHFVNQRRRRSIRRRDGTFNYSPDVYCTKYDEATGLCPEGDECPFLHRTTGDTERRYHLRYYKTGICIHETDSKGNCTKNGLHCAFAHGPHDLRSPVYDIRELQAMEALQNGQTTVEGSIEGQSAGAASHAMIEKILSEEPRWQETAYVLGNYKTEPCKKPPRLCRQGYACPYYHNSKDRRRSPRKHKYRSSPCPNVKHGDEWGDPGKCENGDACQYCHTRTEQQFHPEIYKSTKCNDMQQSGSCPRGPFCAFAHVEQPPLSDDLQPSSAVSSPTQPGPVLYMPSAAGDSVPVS
Description: nsRBNS (natural sequence RNA bind-n-seq); RBNS binding buffer (assumed for nsRBNS): 25 mM Tris pH 7.5, 150 mM KCl, 3 mM MgCl2, 0.01% Triton X-100, 500 ug/ml BSA, 20 U/ml SUPERase-In, 4 C; UNK is unkempt and MSI1 is Musashi-1; names of the RNAs are library labels; protein concentration not given here; high values mean tight binding.
In turn, B1 gave a binding signal of 0.789 enrichment R. Consider B2, for which the binding signal came out at 1.41 enrichment R. Regarding B3, the binding signal worked out at 9.94 enrichment R. With B4, the binding signal turned out to be 0.382 enrichment R. Molecule B5 came in with a binding signal of 0.768 enrichment R. Then B6, with 0.534 enrichment R; and B7, with 3.04 enrichment R. B8 yielded a binding signal of 0.578 enrichment R.

With B9, the binding signal turned out to be 1.28 enrichment R. For B10, the binding signal was 2.61 enrichment R. Then B11, with 13.3 enrichment R. Take B12: the binding signal was 0.474 enrichment R. B13 had a binding signal of 0.651 enrichment R. As for B14, the binding signal came to 0.6 enrichment R. Then B15, with 0.359 enrichment R. As for B16, the binding signal was determined as 4.28 enrichment R.

As for B17, the binding signal amounted to 0.621 enrichment R. To B18 belongs 2.42 enrichment R; to B19, 2.1 enrichment R.

The molecule B20 displayed a binding signal of 0.298 enrichment R. Then B21, with 0.668 enrichment R; and B22, with 1.36 enrichment R.
